Experimental data reported in paper PMC10026737.
Results are given in words; binding and its absence hold for the method and conditions named. Binding seen in cells or lysates may run through a third protein. Some binding calls cover weakened binding; strength is not graded here. Where a sequence is shown, tags or fusion partners need not be part of it.

What was measured:
Experiment in all cases: co-IP; H1299 cells co-transfected with a Flag-tagged and a V5-tagged protein; NP40 lysis buffer (50 mmol/L Tris-HCl pH 8.0, 0.5% NP-40, 1 mmol/L EDTA, 150 mmol/L NaCl); IP with anti-Flag antibody, immunoblot
[1] = target: T1, Flag-tagged full-length USP36 (wild-type) (UniProt Q9P275)
T1 sequence: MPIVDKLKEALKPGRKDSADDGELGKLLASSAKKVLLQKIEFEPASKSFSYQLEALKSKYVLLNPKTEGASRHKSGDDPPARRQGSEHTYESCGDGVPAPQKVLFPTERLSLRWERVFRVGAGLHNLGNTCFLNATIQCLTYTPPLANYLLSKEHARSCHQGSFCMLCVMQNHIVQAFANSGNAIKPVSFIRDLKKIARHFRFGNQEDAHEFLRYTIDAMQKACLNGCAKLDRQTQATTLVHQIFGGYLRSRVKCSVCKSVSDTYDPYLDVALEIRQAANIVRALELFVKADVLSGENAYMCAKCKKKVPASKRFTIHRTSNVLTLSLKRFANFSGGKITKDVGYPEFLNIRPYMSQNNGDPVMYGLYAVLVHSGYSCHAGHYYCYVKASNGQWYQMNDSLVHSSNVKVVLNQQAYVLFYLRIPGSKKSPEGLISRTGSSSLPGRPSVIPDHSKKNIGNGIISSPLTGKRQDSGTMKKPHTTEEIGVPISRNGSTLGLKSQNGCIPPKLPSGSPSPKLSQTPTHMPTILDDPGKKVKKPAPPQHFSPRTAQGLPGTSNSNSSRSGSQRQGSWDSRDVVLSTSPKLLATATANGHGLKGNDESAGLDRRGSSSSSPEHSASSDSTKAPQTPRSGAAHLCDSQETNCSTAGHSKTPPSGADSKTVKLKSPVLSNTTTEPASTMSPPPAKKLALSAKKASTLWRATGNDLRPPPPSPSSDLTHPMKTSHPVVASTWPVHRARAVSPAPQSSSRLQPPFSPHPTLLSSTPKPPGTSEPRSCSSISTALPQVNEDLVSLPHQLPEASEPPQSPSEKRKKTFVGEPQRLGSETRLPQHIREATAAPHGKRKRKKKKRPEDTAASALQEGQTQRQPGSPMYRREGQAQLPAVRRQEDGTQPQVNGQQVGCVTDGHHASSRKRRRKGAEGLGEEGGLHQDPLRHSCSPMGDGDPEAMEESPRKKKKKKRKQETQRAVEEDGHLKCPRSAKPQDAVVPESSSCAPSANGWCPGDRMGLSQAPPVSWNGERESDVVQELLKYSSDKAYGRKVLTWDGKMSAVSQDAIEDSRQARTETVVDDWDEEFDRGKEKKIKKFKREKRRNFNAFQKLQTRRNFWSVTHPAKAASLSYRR

[2] = target: T2, Flag-USP36 deletion mutant, C-terminal nucleolar localization signal containing region (aa 801-1121) (UniProt Q9P275)
T2 sequence: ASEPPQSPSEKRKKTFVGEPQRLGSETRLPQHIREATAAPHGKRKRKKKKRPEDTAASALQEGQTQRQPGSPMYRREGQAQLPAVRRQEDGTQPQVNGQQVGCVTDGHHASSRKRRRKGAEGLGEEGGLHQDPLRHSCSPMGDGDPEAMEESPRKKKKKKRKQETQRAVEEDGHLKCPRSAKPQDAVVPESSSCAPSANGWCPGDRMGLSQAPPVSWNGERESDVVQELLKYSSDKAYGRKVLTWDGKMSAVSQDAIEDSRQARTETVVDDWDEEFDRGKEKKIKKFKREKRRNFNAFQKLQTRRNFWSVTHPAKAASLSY

[3] = target: T3, Flag-USP36 deletion mutant, middle region (aa 421-800) (UniProt Q9P275)
T3 sequence: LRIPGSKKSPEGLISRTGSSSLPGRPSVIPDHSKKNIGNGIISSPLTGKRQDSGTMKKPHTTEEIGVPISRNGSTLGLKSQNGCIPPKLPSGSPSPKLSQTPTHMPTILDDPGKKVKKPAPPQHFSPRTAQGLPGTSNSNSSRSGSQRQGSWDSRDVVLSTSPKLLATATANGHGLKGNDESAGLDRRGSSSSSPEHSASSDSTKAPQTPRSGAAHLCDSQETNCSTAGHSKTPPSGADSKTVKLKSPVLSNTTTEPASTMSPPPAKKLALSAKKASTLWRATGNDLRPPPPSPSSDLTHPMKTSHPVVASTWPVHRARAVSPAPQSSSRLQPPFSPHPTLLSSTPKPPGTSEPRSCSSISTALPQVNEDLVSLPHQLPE

[4] = target: T4, Flag-USP36 deletion mutant, N-terminal USP domain containing region (amino acids 1-420) (UniProt Q9P275)
T4 sequence: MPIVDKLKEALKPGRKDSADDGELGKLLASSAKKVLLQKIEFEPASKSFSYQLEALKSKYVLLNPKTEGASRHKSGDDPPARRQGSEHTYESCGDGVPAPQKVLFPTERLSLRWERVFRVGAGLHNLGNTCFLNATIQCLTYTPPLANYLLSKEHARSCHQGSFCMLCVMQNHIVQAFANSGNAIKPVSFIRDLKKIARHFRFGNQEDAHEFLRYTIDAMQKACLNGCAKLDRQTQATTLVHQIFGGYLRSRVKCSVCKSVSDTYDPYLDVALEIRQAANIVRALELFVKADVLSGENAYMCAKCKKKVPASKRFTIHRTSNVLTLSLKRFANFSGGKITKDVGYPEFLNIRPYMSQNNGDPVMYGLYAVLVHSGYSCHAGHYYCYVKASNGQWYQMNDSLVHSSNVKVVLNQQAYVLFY

B1: V5-DGCR8 (protein, UniProt Q8WYQ5 1-773)
chain: METDESPSPLPCGPAGEAVMESRARPFQALPREQSPPPPLQTSSGAEVMDVGSGGDGQSELPAEDPFNFYGASLLSKGSFSKGRLLIDPNCSGHSPRTARHAPAVRKFSPDLKLLKDVKISVSFTESCRSKDRKVLYTGAERDVRAECGLLLSPVSGDVHACPFGGSVGDGVGIGGESADKKDEENELDQEKRVEYAVLDELEDFTDNLELDEEGAGGFTAKAIVQRDRVDEEALNFPYEDDFDNDVDALLEEGLCAPKKRRTEEKYGGDSDHPSDGETSVQPMMTKIKTVLKSRGRPPTEPLPDGWIMTFHNSGVPVYLHRESRVVTWSRPYFLGTGSIRKHDPPLSSIPCLHYKKMKDNEEREQSSDLTPSGDVSPVKPLSRSAELEFPLDEPDSMGADPGPPDEKDPLGAEAAPGALGQVKAKVEVCKDESVDLEEFRSYLEKRFDFEQVTVKKFRTWAERRQFNREMKRKQAESERPILPANQKLITLSVQDAPTKKEFVINPNGKSEVCILHEYMQRVLKVRPVYNFFECENPSEPFGASVTIDGVTYGSGTASSKKLAKNKAARATLEILIPDFVKQTSEEKPKDSEELEYFNHISIEDSRVYELTSKAGLLSPYQILHECLKRNHGMGDTSIKFEVVPGKNQKSEYVMACGKHTVRGWCKNKRVGKQLASQKILQLLHPHVKNWGSLLRMYGRESSKMVKQETSDKSVIELQQYAKKNKPNLHILSKLQEEMKRLAEEREETRKKPKMSIVASAQPGGEPLCTVDV
binding [1]: binds | binding [2]: binds | binding [3]: no binding | binding [4]: binds
